Results from article PMC4336329 (PLoS ONE, 2015).
Among all 310,000 compounds or so, about 2,200 (0.71%) showed an effect of 50% or more. Effects have a minus sign here. The list shows a part of the results.

These compounds were tested against human ether-à-go-go-related gene (hERG) potassium channel (human, UniProt Q12809) (assay: primary screen, population patch clamp on CHO cells stably expressing hERG).
Sequence of human ether-à-go-go-related gene (hERG) potassium channel (Q12809 whole entry, looked up): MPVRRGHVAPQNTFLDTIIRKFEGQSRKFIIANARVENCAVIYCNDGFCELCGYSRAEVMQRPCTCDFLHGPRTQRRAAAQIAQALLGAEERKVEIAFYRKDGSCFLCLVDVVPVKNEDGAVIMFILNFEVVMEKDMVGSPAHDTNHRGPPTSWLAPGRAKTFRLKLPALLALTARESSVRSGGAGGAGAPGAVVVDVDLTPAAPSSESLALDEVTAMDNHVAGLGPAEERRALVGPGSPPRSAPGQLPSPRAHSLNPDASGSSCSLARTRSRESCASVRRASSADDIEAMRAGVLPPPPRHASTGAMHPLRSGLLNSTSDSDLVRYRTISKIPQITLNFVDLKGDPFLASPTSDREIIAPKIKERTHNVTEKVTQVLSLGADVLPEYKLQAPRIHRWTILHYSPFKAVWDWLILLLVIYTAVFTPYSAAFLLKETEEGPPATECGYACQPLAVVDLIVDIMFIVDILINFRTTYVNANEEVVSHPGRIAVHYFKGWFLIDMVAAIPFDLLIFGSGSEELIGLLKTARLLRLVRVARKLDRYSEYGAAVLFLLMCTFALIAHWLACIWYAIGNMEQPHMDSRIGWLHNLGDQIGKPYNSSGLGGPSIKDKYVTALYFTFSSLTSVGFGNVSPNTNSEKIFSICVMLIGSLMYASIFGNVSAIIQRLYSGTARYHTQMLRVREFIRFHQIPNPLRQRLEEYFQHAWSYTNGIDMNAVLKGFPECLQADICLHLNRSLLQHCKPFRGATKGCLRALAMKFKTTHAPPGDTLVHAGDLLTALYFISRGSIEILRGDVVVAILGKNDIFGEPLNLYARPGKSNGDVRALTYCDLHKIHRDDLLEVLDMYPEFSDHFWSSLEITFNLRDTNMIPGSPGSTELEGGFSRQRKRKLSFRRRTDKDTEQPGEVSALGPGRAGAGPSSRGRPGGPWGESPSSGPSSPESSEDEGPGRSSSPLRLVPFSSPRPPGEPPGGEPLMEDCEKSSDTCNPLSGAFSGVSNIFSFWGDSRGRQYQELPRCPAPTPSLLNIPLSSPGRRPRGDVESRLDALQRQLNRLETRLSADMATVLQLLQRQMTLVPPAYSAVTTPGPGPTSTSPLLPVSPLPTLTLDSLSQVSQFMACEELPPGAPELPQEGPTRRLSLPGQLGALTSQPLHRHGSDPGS

SMILES	hERG current change (%, negative = inhibition) at 1uM
Cc1ccc(C)c(CN2C(=O)c3ccccc3S(=O)c3ccc(C(=O)NCCCN4CCCC4)cc32)c1 (stereo not shown)	1.58%
O=C(COC(=O)/C=C/c1ccc(C(F)(F)F)cc1)NC(=O)NCc1ccco1	14.2%
CC1Oc2ccccc2N(CC(=O)NCCc2ccccc2)C1=O (stereo not shown)	11%
O=C(Nc1ccc(COc2ccccc2)cc1)c1cccc([N+](=O)[O-])c1	8.51%
Cn1c(CNC(=O)c2ccco2)nnc1SCC(=O)N1CCN(c2ccccc2F)CC1	14.2%
O=C(O)c1c2c(nc3ccccc13)/C(=C/c1ccc(O)cc1)CC2	8.2%
O=C1CC(c2ccccc2)CC(=O)N1c1ccc(C(F)(F)F)cc1	9.63%
Cc1cc(C(F)(F)F)nn1CC(=O)NNC(=S)Nc1ccc(Cl)cc1	20.1%
CC1=C(C(=O)OCc2ccccc2)C(c2ccccc2[N+](=O)[O-])NC(=O)N1C (stereo not shown)	14.5%
Cc1cc2oc(=O)cc(CN(C)Cc3ccccc3Cl)c2cc1C	10.2%
CC1CCN(S(=O)(=O)c2ccc(NC(=O)CNC3CCCCC3)cc2)CC1	12%
Cc1cccc2c(N=NC(=O)c3ccc(NS(=O)(=O)c4cccs4)cc3)c(O)[nH]c12	1.9%
CCCCCCCCCc1nc2sc3c(c2c(=O)n1NC(=O)c1ccccc1[N+](=O)[O-])CC(C)(C)OC3	-3.31%
CCC(C)c1ccc(NC(=O)c2ccco2)cc1 (stereo not shown)	13.2%
c1ccc(CSc2ccc(-c3cccnc3)nn2)nc1	8.14%
CC1(C)C(=O)Nc2ccccc2N1C(=O)CN1C(=O)NC(CCc2ccccc2)C1=O (stereo not shown)	13.6%
CNCC(=O)Nc1ccc(Cl)c(C(F)(F)F)c1	7.5%
C/C(=N\NC(=O)c1ccccc1)c1ccc(N2CCCCC2)cc1	6.17%
Cc1[nH]c(=S)[nH]c(=O)c1CCCO	10.4%
Cc1nc(NC(=O)c2cnccn2)ccc1Br	12.4%
CCc1ccccc1NC(=O)CCC(=O)c1cccs1	9.05%
COCCNS(=O)(=O)c1cc(C)c(C)cc1C	9.1%

SMILES	hERG current change (%, negative = inhibition) at 1uM
O=C(CSc1ncccn1)N/N=C/c1cccc([N+](=O)[O-])c1	1.71%
Cc1sc2nc(SCc3ccc(C(=O)O)cc3)n(Cc3ccco3)c(=O)c2c1C	-10.8%
CC1=Nc2cc(C(=O)N3CCC4(CC3)OCCO4)ccc2Sc2ccc(Cl)cc21	34.4%
Cc1ccc(-c2csc(NC3OC(=O)c4ccccc43)n2)cc1 (stereo not shown)	12.6%
O=C(OC1CCOC1=O)c1ccccc1C(=O)c1ccc(Cl)c([N+](=O)[O-])c1 (stereo not shown)	16.7%
COC(=O)C1=C(C)NC2=C(C(=O)c3ccccc32)C1c1cccc(OC)c1 (stereo not shown)	6.56%
CSc1ncccc1C(=O)Nc1nc2c(C)cccc2s1	12.9%
Cc1c(C(=O)NCCSCc2c(Cl)cccc2Cl)cccc1[N+](=O)[O-]	7.12%
CN(CCC#N)C(=O)c1cc2c(Cl)nc3ccccc3c2s1	11.5%
CCOc1ccccc1N1CC(C(=O)Nc2ccc(C(=O)O)cc2)CC1=O (stereo not shown)	11%
COCCn1nnnc1C(c1ccccc1)N1CCN(C(=O)c2ccco2)CC1.Cl (stereo not shown)	8.84%
COC(=O)c1cc(-c2ccccc2)nc2nc(SC)[nH]c(=O)c12	11.3%
Cc1ccc(S(=O)(=O)Nc2ccc(OCC(=O)N3CCOCC3)cc2)c(C)c1NS(C)(=O)=O	13.7%
COc1ccccc1NC(=O)CSc1nc2sc(C)c(C)c2c(=O)n1C	0.91%
CN1CCN(C(=S)Nc2ccc(Cl)cc2Cl)CC1	4.46%
O=C(c1ccc(S(=O)(=O)Nc2ccccc2F)cc1)N1CCC1	1.03%
Cl.O=C1c2cccc3c2[C@H](CCC3)CN1[C@@H]1CN2CCC1CC2	-21.1%
COc1ccc(S(=O)(=O)CCC(=O)N2CCN(c3ccccc3F)CC2)cc1	7.56%
COc1ccc2c(COC(=O)c3cccc(S(=O)(=O)NCC(C)C)c3)cc(=O)oc2c1	10.6%
CCOP(=O)(OCC)c1cccc(P(=O)(c2ccccc2)c2ccccc2)c1O	13.2%
Cc1cccc(C(=O)Nc2cccc(C(=O)NC3CCCC3)c2)c1	-0.37%
